From PubChem BioAssay AID1347073 (National Center for Advancing Translational Sciences (NCATS), 2019)
The whole screen tested about 45,000 compounds, of which about 200 (0.44%) were called active. Not shown: some 7% with an inconclusive outcome. The call rests on the fitted dose curve; in most records, active means well fitted activation curve with a large enough effect; inconclusive means small, poorly fitted or top-dose-only effect; inactive means no such curve, though single readings can be large or run the other way. The list shows a part of the results.

experiment: qHTS of TDP-43 Inhibitors: NCGC Sytravon Library Screen; conditions: yeast TDP-43 toxicity rescue, BacTiter-Glo growth, 24 h; at 46.1 µM (top of the series); further: 0% is about no effect; nearly all actives have a fitted effect of over 55% in size
In short: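 TDP-43-expressing yeast, pregrown in raffinose, seeded at OD600 0.02 in galactose medium with compound for 24 hr at 30 deg C. Growth read by BacTiter-Glo luminescence, so rescue of toxicity appears as activation.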

**Q.** Which growth rescue (activation) does the source give for `CC1CC(OP(O)(=S)c2ccc(N(C)C)cc2NC(=O)c2cccs2)CC(C)(C)C1` (stereo not given) here?
**A.** The growth rescue (activation) was inactive: 20.4%.

**Q.** For `CC(C(N)=O)N1CC(c2ccccc2)CC1=O` (stereo not given), which growth rescue (activation) is on record?
**A.** Its growth rescue (activation) is inactive: 12.1%.

**Q.** For `Cc1ccc(N=C(N(C)C)P(=O)(N(C)C)N(C)C)cc1`, which growth rescue (activation) is on record?
**A.** The growth rescue (activation) was inactive: -15.2%.

**Q.** Which growth rescue (activation) does the source give for `CC1(C)C(C(=O)N2CCN(C(=O)c3ccccc3)CC2)C1(C)C` here?
**A.** Its growth rescue (activation) is inactive: -0.344%.

**Q.** Which growth rescue (activation) does the source give for `O=c1c2ccccc2nc(CNCC2CCCO2)n1-c1ccc(F)cc1` (stereo not given) here?
**A.** The growth rescue (activation) was inactive: 4.51%.

**Q.** With `CC(C(=O)O)N(C(=O)c1ccccc1)c1ccc(F)c(Cl)c1` (stereo not given) as the compound, how does the growth rescue (activation) read?
**A.** The growth rescue (activation) was inactive: -30.8%.

**Q.** Which growth rescue (activation) does the source give for `O=c1[nH]c(=O)n(-c2ccc(Br)cc2)c(O)c1C=NC(CO)(CO)CO` here?
**A.** The growth rescue (activation) was inactive: -5.28%.

**Q.** Which growth rescue (activation) does the source give for `Cc1ccccc1-n1c(O)c(/C=N/Nc2nc3c(c(=O)n(C)c(=O)n3C)n2C)c(=O)[nH]c1=S` here?
**A.** Its growth rescue (activation) is inactive: 15.7%.

**Q.** For `C[C@]12CCC3C(CC[C@H]4C[C@@H](O)CC[C@]34C)[C@H]1C=CC2=O` (stereo not given in full), which growth rescue (activation) is on record?
**A.** The growth rescue (activation) was inactive: 29.6%.

**Q.** With `COc1ccc(-c2nn(CCC#N)cc2C(=O)Nc2ccccc2Br)cc1[N+](=O)[O-]` as the compound, how does the growth rescue (activation) read?
**A.** The growth rescue (activation) was inactive: 25%.

**Q.** Which growth rescue (activation) does the source give for `CCC1(C(=O)c2ccccc2)C2c3ccccc3OC(=O)C21C(C)=O` (stereo not given) here?
**A.** Its growth rescue (activation) is inactive: 5.68%.

**Q.** Which growth rescue (activation) does the source give for `Cc1ncc(CN2CCCC(C(=O)c3cccc(Cl)c3)C2)s1` (stereo not given) here?
**A.** The growth rescue (activation) was inactive: 16.5%.

**Q.** Which growth rescue (activation) does the source give for `CN1CCN(c2ccc(C(N)=O)cc2[N+](=O)[O-])CC1` here?
**A.** Its growth rescue (activation) is inactive: -1.72%.

**Q.** With `CSc1ccc(C(=O)C2CCCN(Cc3cnc(SC)nc3)C2)cc1` (stereo not given) as the compound, how does the growth rescue (activation) read?
**A.** The growth rescue (activation) was inactive: -23.5%.

**Q.** With `CC(C)(C)C(=O)O[C@H]1CC[C@@]2(C)C(=CC(=O)C3C2CC[C@]2(C)C(=O)[C@@H](F)CC32)C1` (stereo not given in full) as the compound, how does the growth rescue (activation) read?
**A.** The growth rescue (activation) was inactive: 27.7%.

**Q.** For `C/C(=N\NC(N)=O)c1c(O)n(C)c(=O)n(C)c1=O`, which growth rescue (activation) is on record?
**A.** The growth rescue (activation) was inactive: -12.6%.

**Q.** For `Cc1c(C=C2C(=O)N(C)C(=O)N(C)C2=O)c(=O)n(-c2ccccc2)n1C`, which growth rescue (activation) is on record?
**A.** Its growth rescue (activation) is inactive: 6.23%.

**Q.** Which growth rescue (activation) does the source give for `O=C1NC(=O)N(c2ccccc2)C(=O)/C1=C/c1ccoc1` here?
**A.** The growth rescue (activation) was inactive: 14.5%.

**Q.** With `CC(=O)Nc1nnc(CCN(CCc2nnc(NC(C)=O)s2)[N+](=O)[O-])s1` as the compound, how does the growth rescue (activation) read?
**A.** The growth rescue (activation) was inactive: -2.68%.

**Q.** For `C[C@]12CCC3C(CC[C@H]4C[C@H](O)CC[C@]34C)C1C[C@@H](O)[C@H]2O` (stereo not given in full), which growth rescue (activation) is on record?
**A.** The growth rescue (activation) was inactive: 5.53%.

**Q.** For `O=C(CN1CC=C(c2ccccc2)CC1)NC(=O)NC1CCCCC1`, which growth rescue (activation) is on record?
**A.** The growth rescue (activation) was inactive: 3.91%.

**Q.** Which growth rescue (activation) does the source give for `Cc1ccc(-n2c(O)c(C=NCC3CCCO3)c(=O)[nH]c2=O)c(C)c1` (stereo not given) here?
**A.** Its growth rescue (activation) is inactive: -10.7%.

**Q.** Which growth rescue (activation) does the source give for `C[C@]12CCC3C(CC[C@H]4C[C@@H](O)CC[C@]34C)C1C[C@@H](O)[C@]2(C)O` (stereo not given in full) here?
**A.** The growth rescue (activation) was inactive: 17.1%.

**Q.** Which growth rescue (activation) does the source give for `N#Cc1c(/N=C/C2C(=O)NC(=S)NC2=O)sc2c1CCCC2` here?
**A.** Its growth rescue (activation) is inactive: 13.5%.

**Q.** For `O=C1NC(=O)N(c2ccc3c(c2)OCO3)C(=O)/C1=C/c1cccs1`, which growth rescue (activation) is on record?
**A.** The growth rescue (activation) was inactive: -5.14%.

**Q.** With `O=c1[nH]c(=S)n(Cc2ccc(F)cc2)c(O)c1C=NCc1ccc2c(c1)OCO2` as the compound, how does the growth rescue (activation) read?
**A.** Its growth rescue (activation) is inactive: 5.63%.

**Q.** For `C[C@]12CCC3C(CC[C@H]4C[C@@H](O)CC[C@]34C)C1C/C(=N/O)[C@@H]2O` (stereo not given in full), which growth rescue (activation) is on record?
**A.** The growth rescue (activation) was inactive: -3.66%.

**Q.** For `Cc1cc(C(=O)N=Nc2c(O)n(C)c3ccccc23)c(C)o1`, which growth rescue (activation) is on record?
**A.** The growth rescue (activation) was inactive: 15.4%.

**Q.** With `CCN(CC)c1ccc(N=Cc2c(O)n(-c3cc(OC)ccc3OC)c(=O)[nH]c2=O)cc1` as the compound, how does the growth rescue (activation) read?
**A.** Its growth rescue (activation) is inactive: -3%.

**Q.** Which growth rescue (activation) does the source give for `O=C(O)C1Cc2ccccc2N2CCCC12` (stereo not given) here?
**A.** The growth rescue (activation) was inactive: 0.546%.

**Q.** Which growth rescue (activation) does the source give for `COc1ccc(-n2c(/C=C/c3ccc4c(c3)OCO4)nc3ccccc3c2=O)cc1` here?
**A.** Its growth rescue (activation) is inactive: 6.53%.

**Q.** With `Cc1cc([N+](=O)[O-])c(Cl)cc1NC(=O)C(C)C` as the compound, how does the growth rescue (activation) read?
**A.** The growth rescue (activation) was inactive: 13%.

**Q.** Which growth rescue (activation) does the source give for `Cc1ccccc1N1C(=O)NC(=O)/C(=C\c2cc(C)n(C)c2C)C1=O` here?
**A.** Its growth rescue (activation) is inactive: -2.46%.

**Q.** Which growth rescue (activation) does the source give for `O=C(CCN1CCCCC1)Nc1ccc(Br)cc1C(=O)c1ccccc1` here?
**A.** The growth rescue (activation) was inactive: 0.977%.

**Q.** With `CC(=O)N(C1=NCCCS1)c1ccc(Cl)cc1` as the compound, how does the growth rescue (activation) read?
**A.** The growth rescue (activation) was inactive: -20.5%.

**Q.** With `Clc1ccc(-c2nc3ccc(Cl)cn3c2CN2CCOCC2)cc1` as the compound, how does the growth rescue (activation) read?
**A.** The growth rescue (activation) was inactive: 2.23%.

**Q.** For `Cc1cc(NC(=O)COC(=O)c2c(C)nn(Cc3ccccc3)c2C)no1`, which growth rescue (activation) is on record?
**A.** The growth rescue (activation) was inactive: 22.1%.

**Q.** For `Cn1c(O)c(/C=C2\N=c3ccccc3=C2CCNC(=S)NC2CC2)c(=O)n(C)c1=O`, which growth rescue (activation) is on record?
**A.** Its growth rescue (activation) is inactive: -9.76%.

**Q.** For `O=C(Cc1ccccc1)N1CCN(Cc2ccccn2)CC1`, which growth rescue (activation) is on record?
**A.** The growth rescue (activation) was inactive: 27.4%.

**Q.** Which growth rescue (activation) does the source give for `CCN(CC)C(=O)c1ccc(NC(=O)COc2ccc([N+](=O)[O-])cc2Cl)cc1` here?
**A.** The growth rescue (activation) was inactive: 2.08%.

**Q.** With `COc1ccccc1-n1c(O)c(C=NCCCn2ccnc2)c(=O)[nH]c1=O` as the compound, how does the growth rescue (activation) read?
**A.** Its growth rescue (activation) is inactive: -3.33%.

**Q.** For `CN(C)c1ccc(/C=C2/C(=O)NC(=O)N(Cc3ccco3)C2=O)cc1`, which growth rescue (activation) is on record?
**A.** Its growth rescue (activation) is inactive: 13.8%.

**Q.** Which growth rescue (activation) does the source give for `Cc1cccc(N2C(=O)NC(=O)/C(=C\c3cnc(-c4ccccc4)nc3)C2=O)c1` here?
**A.** Its growth rescue (activation) is inactive: 27.3%.

**Q.** With `Cc1ccc2c(c1)N(C(C)C(=O)N1CCC3(CC1)OCCO3)C(=O)CO2` (stereo not given) as the compound, how does the growth rescue (activation) read?
**A.** The growth rescue (activation) was inactive: 5.95%.

**Q.** Which growth rescue (activation) does the source give for `O=C1/C(=C\c2cc3c(cc2Br)OCO3)N2CCC1CC2` here?
**A.** The growth rescue (activation) was inactive: 12.6%.
